Whole data set: some 33,000 sequences, median “E-score (-0.5 to 0.5)” near -0.013, cut for the highest 2% near 0.3. The list shows a part of the results.
These sequences were tested against T1, Msn1 (UniProt P22148) (assay: PBM E-score (8-mer binding enrichment) (E-score (-0.5 to 0.5)); higher = stronger / more preferred TF binding; most listed sequences are background and not binding sites). Conditions: protein concentration: 200 nM; construct: GST-full length.
T1 sequence: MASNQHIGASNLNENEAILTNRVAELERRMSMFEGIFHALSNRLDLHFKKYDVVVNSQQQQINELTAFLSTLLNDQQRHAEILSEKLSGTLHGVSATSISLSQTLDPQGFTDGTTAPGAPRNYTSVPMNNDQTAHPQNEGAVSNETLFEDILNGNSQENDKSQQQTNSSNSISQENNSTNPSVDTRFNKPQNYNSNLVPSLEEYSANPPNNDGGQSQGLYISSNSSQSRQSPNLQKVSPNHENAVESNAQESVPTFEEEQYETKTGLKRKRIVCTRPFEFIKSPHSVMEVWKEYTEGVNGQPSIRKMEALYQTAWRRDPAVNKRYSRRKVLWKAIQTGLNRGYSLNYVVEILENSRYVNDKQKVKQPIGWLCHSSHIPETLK
Summary of the method: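 GST-tagged yeast TFs (full-length or DNA-binding domain) were made by PURExpress in vitro transcription/translation and applied at about 100-200 nM to universal all-10-mer Agilent arrays. The arrays were made double-stranded by primer extension, on fresh or once-stripped slides. Bound protein was detected with fluorescent anti-GST, and scans were normalised with masliner. Each ungapped eight-base word, pooled with its reverse complement, received an E-score (modified Wilcoxon-Mann-Whitney statistic) from the Universal PBM Analysis Suite.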

| Sequence | PBM E-score |
| --- | --- |
| ACCACCCG | -0.272 |
| AACGTATG | -0.0294 |
| CAAGAGGG | -0.207 |
| ATGGATGA | -0.011 |
| CCTCATGA | -0.0741 |
| TCACATCA | -0.0539 |
| ACCTAGTC | -0.116 |
| AGGGCTAT | -0.375 |
| ATCCGTTG | 0.0973 |
| TACACGAA | 0.224 |
| GACCACCC | -0.302 |
| CCGGAGCC | -0.136 |
| GCCTGGCC | -0.105 |
| ATACGATA | 0.112 |
| ACCTTGAA | -0.0438 |
| CCTATCCA | -0.133 |
| GACTATGC | 0.071 |
| ACGTAAGT | -0.066 |
| AAGCCTTG | 0.0423 |
| ACGAACTG | -0.0517 |
| AAATTACG | -0.0272 |
| AGGGATGC | -0.182 |
| ACTATGAC | 0.0642 |
| ATTTGTCG | 0.451 |
| ATAGGGTG | -0.217 |

| Sequence | PBM E-score |
| --- | --- |
| GTTGGATA | 0.0207 |
| TCATATCA | 0.0312 |
| CCATCCAC | -0.119 |
| CCGCAACG | -0.0463 |
| ATTATCAA | 0.2 |
| AACTGATC | -0.156 |
| ACTCTTGG | -0.0324 |
| CTCCGACA | 0.174 |
| CCCATCGG | -0.0334 |
| AGGCTCTA | -0.139 |
| ATCGCTCC | -0.163 |
| TCAAGAGA | -0.123 |
| CATAAGGA | 0.159 |
| AGTCATCC | 0.0357 |
| GCGCGTAC | 0.0398 |
| CAGCCCGG | -0.168 |
| CAGGATCG | -0.0602 |
| CCCGGAAA | 0.0372 |
| ACTAGCGC | 0.00695 |
| AAAGAGAG | -0.2 |
| AATGGAAG | 0.0312 |
| CTGCCGAA | -0.0244 |
| ACTGGCGA | -0.25 |
| CACTACCC | -0.148 |
| ACGACATC | 0.163 |

| Sequence | PBM E-score |
| --- | --- |
| ACACCGAG | 0.075 |
| CCTGGAAG | -0.314 |
| CAATTTCG | 0.0208 |
| ACTAATCA | 0.152 |
| AAGTTCCG | 0.0122 |
| GTGCAGGA | -0.202 |
| AAACGGGA | 0.144 |
| AAAAATCG | 0.0175 |
| AAGCTCCT | -0.176 |
| ACTTCTTA | -0.0406 |
| TACTGAGA | 0.0695 |
| GCCCCGAA | 0.0567 |
| CAGCTCTA | -0.137 |
| CTATGATA | -0.0408 |
| GCATCCCA | -0.305 |
| GGTTGGTA | 0.0725 |
| AAAGCAGG | 0.00881 |
| TGCCGGCA | 0.194 |
| CATGGGGG | -0.32 |
| CAGCGCGA | -0.087 |
| AGCATAGC | -0.198 |
| GGTCTCTA | -0.0404 |
| CGCTACCG | 0.00385 |
| AGCGATCA | -0.0507 |
| GGAGTAAC | -0.197 |

| Sequence | PBM E-score |
| --- | --- |
| AACGACCT | -0.043 |
| CATTGCGG | 0.0597 |
| CTGTGTGA | -0.19 |
| GCGTGTGA | -0.0575 |
| TTCATGAA | 0.15 |
| ACCCGTAG | -0.3 |
| ACAACCTC | -0.0594 |
| CGCTTATC | -0.115 |
| ATCGCAAG | 0.0359 |
| CAGGGGCG | -0.409 |
| CCAGTAAC | -0.162 |
| AACGCCTC | -0.293 |
| CTAAAGTA | -0.148 |
| GGTGTACA | 0.0363 |
| AGCCTGCA | -0.0191 |
| CTATATAG | 0.0422 |
| ATTGCCGA | 0.0596 |
| AGAATGGA | 0.098 |
| CTTCCCCA | -0.237 |
| CCAATTTA | 0.209 |
| AGGAGGCG | -0.254 |
| GAGGCACA | -0.0819 |
| CGCGGTTC | 0.186 |
| TAAGCGTA | -0.0894 |
| TACCCTCA | -0.109 |

| Sequence | PBM E-score |
| --- | --- |
| GCCCAGTA | -0.217 |
| AGGGGCTC | -0.331 |
| CCAGCGCA | -0.0348 |
| GTTACAAA | 0.158 |
| AAGGTACC | 0.0421 |
| ACTTGTAC | 0.257 |
| CCTCTTCC | -0.321 |
| ATGGTAGC | -0.1 |
| GACGAACC | 0.0173 |
| CTTAGACC | -0.0214 |
| ACCGGCAC | 0.0381 |
| ACAGTGAG | -0.0223 |
| CCTTCCAC | -0.276 |
| AATTACCT | 0.0704 |
| GGGCATTA | -0.106 |
| CTTAGCTC | -0.26 |
| GCTCACTA | -0.0756 |
| AAAATCTT | 0.0233 |
| AGAGGGAG | -0.29 |
| GGCTAGCC | -0.167 |
| AGTTAACG | 0.0384 |
| ACGGGCTG | -0.11 |
| TGACCCCA | -0.176 |
| CAGTCTAA | 0.102 |
| TCGGTAGA | 0.153 |

| Sequence | PBM E-score |
| --- | --- |
| CAGGAAGG | -0.156 |
| CTTCCATA | -0.0492 |
| CAGGTAGA | -0.142 |
| ACCCCAGT | -0.138 |
| AGATGATG | -0.0445 |
| GTCGTTTA | 0.121 |
| GGGGGGCA | -0.415 |
| GGCCGTTA | -0.0233 |
| TAGATTAA | 0.137 |
| CCTTCGAA | -0.0899 |
| CGAGCGTC | -0.232 |
| CCCGGCTC | -0.169 |
| AGACTCTA | -0.145 |
| CCCCTGTA | -0.164 |
| CAATCAAA | 0.0568 |
| AACAATCC | 0.136 |
| ACACTAAT | 0.154 |
| CGGCTGTC | -0.0733 |
| CCTTGTAA | 0.147 |
| CCGCCCGC | -0.164 |
| ATTATTGC | 0.243 |
| GATCAGAC | -0.195 |
| AAGCCTCG | -0.113 |
| CCAAACAA | 0.0977 |
| ACACCATG | -0.0462 |

| Sequence | PBM E-score |
| --- | --- |
| AGTTGTGA | 0.137 |
| AATACGGC | 0.0768 |
| ACGAATAC | 0.0997 |
| GGAAACAA | -0.136 |
| GAGATATA | 0.0973 |
| ATTCCTTC | 0.0265 |
| CACGTCGC | -0.0945 |
| GCAGGAGC | -0.26 |
| ATCCACAA | 0.0306 |
| ACGGCAGT | -0.121 |
| CACACTCG | 0.0822 |
| CAGCTGAC | 0.0407 |
| CTATCGGC | -0.00405 |
| CGTTGTGC | 0.114 |
| AAGGCGAC | -0.115 |
| TGTACGAA | 0.171 |
| CCGCGCGA | 0.126 |
| GTTATATA | 0.11 |
| CTCGAGAC | 0.179 |
| ATCAACTC | 0.0974 |
| AGTACGAT | 0.0546 |
| CGGGGCGA | 0.0275 |
| AACCCAAG | -0.0418 |
| CAGTAGGC | -0.216 |
| AAGCGGCA | 0.0195 |

| Sequence | PBM E-score |
| --- | --- |
| GAAGCAAA | 0.0838 |
| AAGTTGCA | -0.00524 |
| CTTCCGAC | 0.11 |
| GGGGCCCC | -0.264 |
| GTTTCGTA | 0.0844 |
| ACGCCAGT | -0.218 |
| ACCAACTC | 0.0532 |
| CCAGAAAC | -0.0853 |
| AGTCTAAA | 0.0711 |
| CTTATACC | 0.102 |
| CACTTAAC | -0.0864 |
| GTACGTTA | 0.0833 |
| ACCTCCGT | -0.0463 |
| CACGGCAC | -0.0714 |
| GGGTCTTA | -0.0158 |
| ACAATCAG | 0.132 |
| CTTGTGGC | -0.0885 |
| ATTATAAT | 0.307 |
| ACTTCGGC | 0.126 |
| GCGATCGA | 0.0833 |
| ATCAAACG | -0.0179 |
| ATCCCGAT | 0.125 |
| GCTAATTA | -0.00217 |
| ATTGAAAA | 0.266 |
| CAGATTCA | -0.223 |

| Sequence | PBM E-score |
| --- | --- |
| ACCCTTCC | -0.253 |
| GTGGTAAA | 0.157 |
| GATTCTGC | 0.114 |
| CCAACTAA | 0.0228 |
| AAAAACTC | -0.0111 |
| CCAGAATA | 0.122 |
| AACATCTA | -0.0396 |
| ACCGTGCA | -0.0617 |
| CCACTTCA | -0.141 |
| CACGGTCC | -0.411 |
| ATTACTGC | 0.0705 |
| AGCTCCCA | -0.233 |
| GTAGAGAA | 0.0676 |
| ACGCCCAT | -0.00159 |
| CATCAGAC | -0.0545 |
| CACTATTA | 0.0994 |
| CGTTAGGA | 0.079 |
| CGGTTTAA | 0.122 |
| CCATGAGG | -0.267 |

— the supplement of paper PMC3334620
